Read-outs that look alike come from different tables or passages of the source. These are yes or no findings as the source states them, for the method shown. Binding seen in cells or lysates may run through a third protein. Some binding calls cover weakened binding; strength is not graded here. Tags and fused reporters may be left off the sequences shown.
Tests used:
[1] = target: T1, HA-tagged Dnttip1 (mouse) (UniProt Q99LB0); experiment: co-IP; FLAG- and HA-tagged proteins co-expressed in HEK293 cells (harvested 24 hrs after transfection); whole cell lysates in MAPK buffer; agarose beads with anti-FLAG or anti-HA antibodies, 4°C, 2.5 hrs
T1 sequence: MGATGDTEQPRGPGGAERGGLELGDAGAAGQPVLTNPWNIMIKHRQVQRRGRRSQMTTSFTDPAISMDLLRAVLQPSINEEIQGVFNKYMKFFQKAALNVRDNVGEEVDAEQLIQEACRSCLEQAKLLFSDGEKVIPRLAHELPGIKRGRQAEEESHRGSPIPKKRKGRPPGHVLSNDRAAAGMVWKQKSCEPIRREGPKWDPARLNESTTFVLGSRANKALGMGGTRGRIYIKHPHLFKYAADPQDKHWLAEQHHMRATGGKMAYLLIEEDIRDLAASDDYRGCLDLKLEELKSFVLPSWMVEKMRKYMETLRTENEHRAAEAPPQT

The chains behind the UniProt entries cited, without tags or fusion partners.
UniProt Q13547: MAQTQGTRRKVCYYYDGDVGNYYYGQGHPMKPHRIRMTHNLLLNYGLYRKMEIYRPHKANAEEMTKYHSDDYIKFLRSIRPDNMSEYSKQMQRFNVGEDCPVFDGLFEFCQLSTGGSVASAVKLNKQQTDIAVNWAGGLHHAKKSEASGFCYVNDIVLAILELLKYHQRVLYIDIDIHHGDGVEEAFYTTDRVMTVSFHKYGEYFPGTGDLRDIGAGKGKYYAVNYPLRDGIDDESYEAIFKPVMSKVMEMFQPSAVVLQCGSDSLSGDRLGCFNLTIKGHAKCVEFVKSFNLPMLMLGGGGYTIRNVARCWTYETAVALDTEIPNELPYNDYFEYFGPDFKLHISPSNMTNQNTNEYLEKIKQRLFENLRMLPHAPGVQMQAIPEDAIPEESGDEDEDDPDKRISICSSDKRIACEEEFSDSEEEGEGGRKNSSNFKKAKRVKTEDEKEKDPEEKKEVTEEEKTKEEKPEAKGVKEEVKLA

[2] = target: T2, HA-tagged ZNF541 (mouse) (UniProt Q0GGX2); experiment: as above
T2 sequence: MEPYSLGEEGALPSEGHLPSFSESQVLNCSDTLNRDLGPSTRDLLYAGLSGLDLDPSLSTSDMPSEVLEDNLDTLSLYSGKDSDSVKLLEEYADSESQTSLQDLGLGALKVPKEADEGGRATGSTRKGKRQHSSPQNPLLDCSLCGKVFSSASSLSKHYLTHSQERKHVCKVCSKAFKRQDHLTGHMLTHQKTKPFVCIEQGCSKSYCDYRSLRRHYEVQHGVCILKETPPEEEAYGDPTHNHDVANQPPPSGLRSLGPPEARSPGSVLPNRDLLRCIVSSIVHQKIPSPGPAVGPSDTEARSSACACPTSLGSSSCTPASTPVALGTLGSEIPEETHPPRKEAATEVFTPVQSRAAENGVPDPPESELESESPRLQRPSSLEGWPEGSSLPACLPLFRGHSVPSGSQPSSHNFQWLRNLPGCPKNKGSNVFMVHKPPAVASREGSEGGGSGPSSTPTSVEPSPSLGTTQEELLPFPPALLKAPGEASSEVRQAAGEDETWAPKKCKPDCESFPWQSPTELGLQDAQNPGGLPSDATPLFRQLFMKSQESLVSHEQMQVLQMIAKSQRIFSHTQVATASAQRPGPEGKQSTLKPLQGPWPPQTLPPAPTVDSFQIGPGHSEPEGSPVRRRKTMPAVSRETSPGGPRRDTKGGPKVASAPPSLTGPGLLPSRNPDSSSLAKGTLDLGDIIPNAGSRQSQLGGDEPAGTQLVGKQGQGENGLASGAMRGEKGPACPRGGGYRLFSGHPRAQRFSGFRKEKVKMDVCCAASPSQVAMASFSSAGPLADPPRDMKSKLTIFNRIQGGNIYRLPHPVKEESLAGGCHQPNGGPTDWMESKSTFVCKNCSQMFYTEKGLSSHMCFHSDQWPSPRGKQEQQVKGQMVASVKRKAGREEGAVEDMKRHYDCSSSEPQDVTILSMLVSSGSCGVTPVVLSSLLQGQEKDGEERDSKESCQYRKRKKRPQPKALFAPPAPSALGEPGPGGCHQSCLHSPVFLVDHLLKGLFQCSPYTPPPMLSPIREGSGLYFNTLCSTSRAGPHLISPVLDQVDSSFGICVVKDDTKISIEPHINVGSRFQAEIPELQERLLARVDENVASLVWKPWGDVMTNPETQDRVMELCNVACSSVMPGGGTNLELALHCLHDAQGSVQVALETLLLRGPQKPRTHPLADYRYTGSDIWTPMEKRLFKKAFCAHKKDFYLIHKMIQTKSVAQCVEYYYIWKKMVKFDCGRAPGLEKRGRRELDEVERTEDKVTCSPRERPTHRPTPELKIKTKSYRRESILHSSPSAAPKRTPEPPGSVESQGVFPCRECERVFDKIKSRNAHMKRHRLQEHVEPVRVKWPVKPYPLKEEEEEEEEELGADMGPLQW

[3] = target: FLAG-tagged SAEG-2 (C. elegans) (UniProt Q03615); experiment: co-IP; FLAG- and HA-tagged proteins co-expressed in Drosophila S2 cells (700 µM copper sulfate, 24 hrs); whole cell lysates in MAPK buffer (10 mM Tris-HCl pH 8.0, 50 mM NaCl, 1 mM EDTA, 1% NP-40); agarose beads with anti-FLAG or anti-HA antibodies, 4°C, 2.5 hrs
[4] = target: T3, HA-tagged SAEG-1 (C. elegans) (UniProt Q20733); experiment: as above
T3 sequence: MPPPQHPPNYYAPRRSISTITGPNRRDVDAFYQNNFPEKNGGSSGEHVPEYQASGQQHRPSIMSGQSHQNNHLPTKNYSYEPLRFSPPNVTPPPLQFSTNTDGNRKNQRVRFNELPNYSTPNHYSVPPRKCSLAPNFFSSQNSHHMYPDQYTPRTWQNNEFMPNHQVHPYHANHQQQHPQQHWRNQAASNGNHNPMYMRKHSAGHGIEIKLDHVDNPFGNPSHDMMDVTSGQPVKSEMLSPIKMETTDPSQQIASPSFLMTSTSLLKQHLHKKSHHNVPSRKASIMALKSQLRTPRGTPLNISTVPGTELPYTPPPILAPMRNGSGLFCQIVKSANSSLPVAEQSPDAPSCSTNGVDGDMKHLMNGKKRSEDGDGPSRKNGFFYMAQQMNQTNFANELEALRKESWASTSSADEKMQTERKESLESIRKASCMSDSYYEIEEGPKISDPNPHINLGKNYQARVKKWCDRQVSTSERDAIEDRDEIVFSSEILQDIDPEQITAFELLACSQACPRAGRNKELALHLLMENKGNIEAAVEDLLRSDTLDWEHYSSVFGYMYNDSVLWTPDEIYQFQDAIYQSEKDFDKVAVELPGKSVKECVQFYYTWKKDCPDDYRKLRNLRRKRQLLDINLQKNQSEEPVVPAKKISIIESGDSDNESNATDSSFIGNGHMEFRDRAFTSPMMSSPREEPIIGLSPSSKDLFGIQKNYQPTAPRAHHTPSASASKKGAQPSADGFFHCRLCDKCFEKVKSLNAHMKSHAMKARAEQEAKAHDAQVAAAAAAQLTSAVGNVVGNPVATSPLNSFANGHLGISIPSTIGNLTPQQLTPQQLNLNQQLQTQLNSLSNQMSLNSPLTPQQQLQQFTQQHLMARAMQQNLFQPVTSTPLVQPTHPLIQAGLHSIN

[5] = target: T1, HA-tagged Dnttip1 (mouse); experiment: co-IP; FLAG- and HA-tagged proteins co-expressed in HEK293 cells (harvested 24 hrs after transfection); whole cell lysates in MAPK buffer; agarose beads with anti-FLAG or anti-HA antibodies, 4°C, 2.5 hrs; remark: listed apart in the source
[6] = target: T2, HA-tagged ZNF541 (mouse); experiment: as above; remark: listed apart in the source
[7] = target: FLAG-tagged Dnttip1 (mouse) (UniProt Q99LB0); experiment: as above

With “FLAG-tagged HDAC1 (from UniProt Q13547 1-482) (enzyme)” the binding [1] was “binds” and the binding [2] was “binds”.

B1: FLAG-tagged SAEG-2 (protein, UniProt Q03615 1-305)
chain: MRIVILDELLSREMDGSNDGSSARVNSLKHVIKRNKMDMADDAPSSLDLMRRIFQAEISREIHQIMERHTRTTLLPAIENLRKNGHVVDESVLNGLYCNILEAAKKPYQKDPEPMPPICTNGNGFLDINSQEHENNLKRGYESDSSDVSGVSHCSDAKRRRGRPRKDEEAYRLEMTPPTMNEVIRWNPDRIDVNTRFITATKIAQVMGMPPSILFNKYPRMFRYSCDEDDKNILHEQNLLIRAPGRCYLLVAEDARQLVPSTYFQDVLNVSFLISEPLLSKIRQKAASTYEKYKVFLPTQPNNYL
B1 was tested, and the binding [3] was “binds” and the binding [4] was “binds”.

B2: FLAG-tagged wild-type PKG-Iβ (enzyme, UniProt Q13976-2 1-686)
chain: MGTLRDLQYALQEKIEELRQRDALIDELELELDQKDELIQKLQNELDKYRSVIRPATQQAQKQSASTLQGEPRTKRQAISAEPTAFDIQDLSHVTLPFYPKSPQSKDLIKEAILDNDFMKNLELSQIQEIVDCMYPVEYGKDSCIIKEGDVGSLVYVMEDGKVEVTKEGVKLCTMGPGKVFGELAILYNCTRTATVKTLVNVKLWAIDRQCFQTIMMRTGLIKHTEYMEFLKSVPTFQSLPEEILSKLADVLEETHYENGEYIIRQGARGDTFFIISKGTVNVTREDSPSEDPVFLRTLGKGDWFGEKALQGEDVRTANVIAAEAVTCLVIDRDSFKHLIGGLDDVSNKAYEDAEAKAKYEAEAAFFANLKLSDFNIIDTLGVGGFGRVELVQLKSEESKTFAMKILKKRHIVDTRQQEHIRSEKQIMQGAHSDFIVRLYRTFKDSKYLYMLMEACLGGELWTILRDRGSFEDSTTRFYTACVVEAFAYLHSKGIIYRDLKPENLILDHRGYAKLVDFGFAKKIGFGKKTWTFCGTPEYVAPEIILNKGHDISADYWSLGILMYELLTGSPPFSGPDPMKTYNIILRGIDMIEFPKKIAKNAANLIKKLCRDNPSERLGNLKNGVKDIQKHKWFEGFNWEGLRKGTLTPPIIPSVASPTDTSNFDSFPEDNDEPPPDDNSGWDIDF
With B2 the binding [5] was “binds” and the binding [6] was “binds”.

B3: FLAG-tagged Dnttip1 (protein, UniProt Q99LB0 1-328)
chain: T1 sequence
B3 was tested, and the binding [7] was “binds”.

Source: paper PMC3088716
